Measurements taken from PubChem BioAssay AID887 (National Center for Advancing Translational Sciences (NCATS), 2007).
Values joined by “and” are separate entries in the source; they are usually repeats but may differ in a detail not shown here. Identical values can stand only once. Screen size: about 74,000 compounds; about 1,100 (1.5%) were called active. Inconclusive results, whose numbers are uncertain, are shown with a selection of clear calls. The call rests on the fitted dose curve; in most records, active means well fitted inhibition curve with a large enough effect; inconclusive means small, poorly fitted or top-dose-only effect; inactive means no such curve, though single readings can be large or run the other way. Potencies beside an inconclusive call are fits to weak or partial responses and may not hold up.

What follows are compounds tested against Polyunsaturated fatty acid lipoxygenase ALOX15 (Homo sapiens) (UniProt P16050) (assay: qHTS Assay for Inhibitors of 15-hLO (15-human lipoxygenase)). Conditions: purified 15hLO-1, xylenol orange hydroperoxide absorbance; activity change, negative = inhibition: at 57.1 µM (top of the series) unless noted.
Procedure, shortened: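 Purified human 15hLO-1 (40 nM final) in 25 mM Hepes pH 7.5, 0.01% Triton X-100 was preincubated with compound 15 min at room temperature, then reacted 6 min with 50 uM arachidonic acid; hydroperoxide detected by Fe-XO, 573/405 nm absorbance ratio.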
Further: nearly all actives have a fitted effect of over 55% in size.
On the % scale 0 is the no-effect control and ±100 the full control effect; potency means the concentration at half of the fitted maximal effect; tags describe the fitted curve by direction and shape.

Chain of UniProt P16050 (P16050 whole entry, looked up): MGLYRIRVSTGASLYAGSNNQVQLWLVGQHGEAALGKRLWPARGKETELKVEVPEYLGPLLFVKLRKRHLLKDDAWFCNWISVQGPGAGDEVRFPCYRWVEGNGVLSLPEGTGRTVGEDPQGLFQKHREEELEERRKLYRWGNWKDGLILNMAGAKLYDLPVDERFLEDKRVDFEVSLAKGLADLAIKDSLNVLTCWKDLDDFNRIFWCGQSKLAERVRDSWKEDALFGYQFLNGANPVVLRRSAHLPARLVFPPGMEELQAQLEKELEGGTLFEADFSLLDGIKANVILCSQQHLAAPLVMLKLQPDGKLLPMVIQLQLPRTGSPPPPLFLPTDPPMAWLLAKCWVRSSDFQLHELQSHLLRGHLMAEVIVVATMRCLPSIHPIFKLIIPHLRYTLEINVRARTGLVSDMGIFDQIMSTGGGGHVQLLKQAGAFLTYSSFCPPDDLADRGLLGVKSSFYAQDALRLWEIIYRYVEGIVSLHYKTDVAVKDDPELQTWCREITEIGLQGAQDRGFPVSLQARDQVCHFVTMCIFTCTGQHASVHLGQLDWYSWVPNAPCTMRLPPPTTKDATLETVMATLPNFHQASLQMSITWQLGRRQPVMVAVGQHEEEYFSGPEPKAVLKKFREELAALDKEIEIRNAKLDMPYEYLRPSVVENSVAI

**Q.** COc1cccc(CN2CCN(c3cccc(C(F)(F)F)c3)CC2)c1OC was tested. Which Potency did it give?
**A.** inconclusive: 20 µM [inhibitor, partial curve]

**Q.** With CCOc1nc2cccc(C(=O)OC(C)OC(=O)OC3CCCCC3)c2n1Cc1ccc(-c2ccccc2-c2nn[nH]n2)cc1 (configuration not stated) as the compound, how does the Potency read?
**A.** inconclusive: 31.6 µM [inhibitor, single point]

**Q.** How did the “activity change, negative = inhibition” value turn out when CCC(=O)Nc1cccc(-c2cn3ccsc3n2)c1 was run?
**A.** inactive: 10%

**Q.** How did the Potency turn out when CSc1nnc(Cn2c(=O)sc3ccccc32)n1-c1cccc(Cl)c1 was run?
**A.** inconclusive: 39.8 µM [inhibitor, single point]

**Q.** Which Potency does the source give for O=C1C(Cl)=C(NCCN2CCOCC2)C(=O)c2ncccc21 here?
**A.** inconclusive: 39.8 µM [inhibitor, single point]

**Q.** With Cc1ccc2c(c1)c1c(n2CC(O)Cn2c(C)nc3ccccc32)/C(=N\O)CCC1 (configuration not stated) as the compound, how does the “activity change, negative = inhibition” value read?
**A.** inactive: -20.8%

**Q.** With CCCC(c1cc(C(C)(C)C)c(O)cc1C)c1cc(C(C)(C)C)c(O)cc1C as the compound, how does the Potency read?
**A.** inconclusive: 3.98 µM [inhibitor, single point]

**Q.** CCSc1nnc(-c2ccccc2NC(=O)CC)c(=O)[nH]1 was tested. Which Potency did it give?
**A.** inconclusive: 0.0316 µM [inhibitor, full curve, poor fit]

**Q.** Which Potency does the source give for Cc1noc(C)c1-c1nc(N(C)Cc2ccco2)c2ccccc2n1 here?
**A.** inconclusive: 39.8 µM [inhibitor, single point]

**Q.** How did the Potency turn out when Cc1ccc2[nH]c(=O)c(CN(Cc3ccccc3)Cc3nnnn3C3CCCC3)cc2c1 was run?
**A.** inconclusive: 15.8 µM [inhibitor, partial curve]

**Q.** With COc1ccc(N(C(=O)c2ccco2)S(=O)(=O)c2cc(OC)ccc2OC)cc1 as the compound, how does the “activity change, negative = inhibition” value read?
**A.** inactive: -1.38%

**Q.** Cn1c(=O)c(-c2ccc(Cl)cc2)nc2cnc(N3CCNCC3)nc21 was tested. Which Potency did it give?
**A.** inconclusive: 5.01 µM [inhibitor, single point]

**Q.** With O=C(O)c1cccc(-n2nnnc2SCc2ccccn2)c1 as the compound, how does the “activity change, negative = inhibition” value read?
**A.** inactive: 4.64%

**Q.** With CCOC(=O)N1CCC(NC(=O)c2ccc3c(c2)N(C)CCS3)CC1 as the compound, how does the “activity change, negative = inhibition” value read?
**A.** inactive: -27%

**Q.** C[C@H]1COC(=O)[C@H](Cc2ccccc2)NC(=O)[C@@H](C)COC(=O)[C@H](Cc2ccccc2)NC1=O was tested. Which activity change, negative = inhibition did it give?
**A.** inactive: 8.94% [at 11.4 µM]

**Q.** For N#Cc1c(-c2cccs2)cc(-c2ccccn2)nc1N, which “activity change, negative = inhibition” value is on record?
**A.** inactive: -4.68%

**Q.** For CCOC(=O)c1sc(NC(=O)CSc2n[nH]c(-c3ccccc3)n2)c(C#N)c1C, which Potency is on record?
**A.** active: 12.6 µM

**Q.** Which Potency does the source give for CCc1ccc(NC(=O)Nc2cccs2)cc1 here?
**A.** active: 25.1 µM

**Q.** For COc1ccc2c(c1OC)C(=O)N(c1cccc(C(F)(F)F)c1)C2, which “activity change, negative = inhibition” value is on record?
**A.** inactive: -7.93%

**Q.** For CCS(=O)(=O)N1CCC(C(=O)OCC(=O)c2ccc(Br)cc2)CC1, which “activity change, negative = inhibition” value is on record?
**A.** inactive: 6.59%

**Q.** CNC[C@H](O)[C@H](O)[C@H](O)[C@H](O)CO was tested. Which “activity change, negative = inhibition” value did it give?
**A.** inactive: 4.98% [at 25.6 µM]

**Q.** How did the “activity change, negative = inhibition” value turn out when COc1ccc(-c2csc(N(CC3CCCO3)C(=O)c3cccs3)n2)cc1 (configuration not stated) was run?
**A.** inactive: 1.07%

**Q.** Which “activity change, negative = inhibition” value does the source give for Cc1cccc(NC(=O)c2sc3nc(-c4ccccc4)cn3c2C)n1 here?
**A.** inactive: -15.1%

**Q.** How did the Potency turn out when CC(C)N(CCC(=O)c1ccc2ccccc2c1)Cc1ccccc1 was run?
**A.** inactive and inconclusive: 12.6 µM [inhibitor, partial curve]

**Q.** For CCOC(=O)C1CCN(C(c2cccs2)c2sc3nc(C)nn3c2O)CC1 (configuration not stated), which “activity change, negative = inhibition” value is on record?
**A.** inactive: 31.6%

**Q.** For O=C(Nc1ccc(O)cc1)C1CC=CCC1 (configuration not stated), which Potency is on record?
**A.** inconclusive: 15.8 µM [inhibitor, partial curve]

**Q.** With CC(Cc1ccccc1)C(=O)NCCc1c[nH]c2ccccc12 (configuration not stated) as the compound, how does the Potency read?
**A.** inconclusive: 39.8 µM [inhibitor, single point]

**Q.** How did the Potency turn out when O=C1CCCC/C1=C\Nc1ccc(O)cc1 was run?
**A.** active: 20 µM

**Q.** For CN(C)Cc1cc(C(C)(C)C)ccc1-c1ccc(C(C)(C)C)cc1CN(C)C, which activity change, negative = inhibition is on record?
**A.** inactive: 6.2% [at 11.4 µM]

**Q.** With O=C1C=CC(=Nc2cccc3c(N=C4C=CC(=O)O4)cccc23)O1 as the compound, how does the Potency read?
**A.** inconclusive: 3.16 µM [inhibitor, partial curve]

**Q.** With CCN1CCN(CC(=O)n2c3c(c4ccccc42)CC(C)CC3)CC1 (configuration not stated) as the compound, how does the Potency read?
**A.** inconclusive: 25.1 µM [inhibitor, single point]

**Q.** With COc1cc(C2C(C(=O)c3ccc(C)o3)=C(O)C(=O)N2Cc2cccnc2)ccc1O (configuration not stated) as the compound, how does the Potency read?
**A.** inconclusive: 39.8 µM [inhibitor, single point]

**Q.** For Cc1ccc(-c2nnc(CSc3nnc(COc4ccccc4)n3-c3ccc(C)cc3)o2)cc1, which Potency is on record?
**A.** inconclusive: 25.1 µM [inhibitor, single point]

**Q.** With NC(=O)C1(N2CCCCC2)CCN(C(=O)c2cccn3c(=O)c4cc(Cl)ccc4nc23)CC1 as the compound, how does the Potency read?
**A.** inconclusive: 39.8 µM [inhibitor, single point]

**Q.** With COC(=O)Nc1nnc(-c2ccccc2Cl)s1 as the compound, how does the “activity change, negative = inhibition” value read?
**A.** inactive: 1.8%

**Q.** CCOCCCn1c(=N)c(C(N)=S)cc2c(=O)n3cccc(C)c3nc21 was tested. Which Potency did it give?
**A.** inconclusive: 31.6 µM [inhibitor, single point]

**Q.** How did the Potency turn out when Cc1ccc2[nH]c(=O)c(CNC(C)(C)C)cc2c1 was run?
**A.** inconclusive: 3.16 µM [inhibitor, full curve]

**Q.** For CC1=CC(C)(C)N2C(=O)C3(C(C#N)=C(N)OC4=C3C(=O)CCC4)c3c(C)c(C)cc1c32 (configuration not stated), which Potency is on record?
**A.** inconclusive: 39.8 µM [inhibitor, partial curve]

**Q.** With Cc1cc(NC(=O)CSc2nnc(Cc3cccn3C)n2CCc2ccccc2)no1 as the compound, how does the Potency read?
**A.** inconclusive: 25.1 µM [inhibitor, partial curve]

**Q.** For CCOc1ccc(-c2[nH]ncc2Oc2cccc(OC)c2)c(O)c1, which Potency is on record?
**A.** inconclusive: 31.6 µM [inhibitor, single point]

**Q.** COc1ccccc1-c1cncnc1Nc1ccccc1 was tested. Which Potency did it give?
**A.** active: 25.1 µM

**Q.** Which “activity change, negative = inhibition” value does the source give for CCCc1cc(C(=O)Nc2sc(C)c(C)c2C(=O)OCC)no1 here?
**A.** inactive: -10.1%

**Q.** With COc1ccccc1NC(=O)N1CCc2[nH]c3ccc(Cl)cc3c2C1 as the compound, how does the Potency read?
**A.** inconclusive: 20 µM [inhibitor, partial curve]

**Q.** For CC(C)=CCC/C(C)=C/CO/N=C1/C[C@@H](O)[C@@H](O)[C@@H]2[C@@H]3C(=O)N(Cc4ccc5c(c4)OCO5)C(=O)[C@H]3CC[C@H]12, which activity change, negative = inhibition is on record?
**A.** inactive: -20% [at 11.4 µM]

**Q.** With CCN(c1cccc(C)c1)S(=O)(=O)c1ccc(O)c(C(=O)O)c1 as the compound, how does the Potency read?
**A.** inconclusive: 39.8 µM [inhibitor, partial curve, poor fit]

**Q.** Which Potency does the source give for CSC1=C(C#N)C(c2ccc(Cl)cc2)C2=C(CC(C)(C)CC2=O)N1 (configuration not stated) here?
**A.** inconclusive: 5.01 µM [inhibitor, single point]

**Q.** How did the Potency turn out when CCOC(=O)N1CCN(C(=O)CN(C2CCCCC2)S(=O)(=O)c2ccc(C)cc2)CC1 was run?
**A.** inconclusive: 0.158 µM [inhibitor, full curve]

**Q.** Which Potency does the source give for S=C1SCN(Cc2ccccn2)CN1Cc1ccco1 here?
**A.** inconclusive: 39.8 µM [inhibitor, single point]

**Q.** With CCOC(=O)c1[nH]nc(N)c1NC(=O)c1ccc(Cl)cc1Cl as the compound, how does the Potency read?
**A.** inconclusive: 2.51 µM [inhibitor, partial curve]

**Q.** With O=C(Nc1ccc2c(c1)Cc1ccccc1-2)[C@@H]1[C@H](C(=O)O)[C@]2(Cl)C(Cl)=C(Cl)[C@@]1(Cl)C2(Cl)Cl as the compound, how does the Potency read?
**A.** inconclusive: 0.316 µM [inhibitor, full curve, poor fit]

**Q.** With Cc1ccc(C)c(S(=O)(=O)C(C#N)c2nc3ccccc3nc2N2CCCC2)c1 (configuration not stated) as the compound, how does the Potency read?
**A.** active: 12.6 µM

**Q.** How did the Potency turn out when C/C(=C\c1ccco1)C1C(C#N)=C(N)Oc2n[nH]c(-c3ccccc3)c21 (configuration not stated) was run?
**A.** inconclusive: 12.6 µM [inhibitor, partial curve]

**Q.** Which Potency does the source give for Cc1c(-c2nc(N)nc(Nc3ccccc3)n2)oc2ccccc12 here?
**A.** inconclusive: 25.1 µM [inhibitor, partial curve]

**Q.** How did the Potency turn out when O=C(CSC1CCCCC1)N1CCN(c2ccccc2)CC1 was run?
**A.** inconclusive: 39.8 µM [inhibitor, single point]

**Q.** Which activity change, negative = inhibition does the source give for CO[C@H]1COC(=O)[C@H](C)COC(=O)[C@@H](OCc2ccccc2)/C=C\[C@@H]1C here?
**A.** inactive: 2.54% [at 11.4 µM]

**Q.** COC(=O)NC(/C(C(=O)OC)=C(\C)NCc1ccccc1)c1cccs1 (configuration not stated) was tested. Which Potency did it give?
**A.** inconclusive: 2.51 µM [inhibitor, partial curve, poor fit]

**Q.** With COc1ccc(C(=O)N2CCC3(CC2)CCN(c2cccc(-c4ccccc4)c2)CC3)cc1 as the compound, how does the “activity change, negative = inhibition” value read?
**A.** inactive: -7.37%

**Q.** Which “activity change, negative = inhibition” value does the source give for Cc1ccc(C)c(OCc2nc(-c3cccnc3)no2)c1 here?
**A.** inactive: 5.16%

**Q.** For CCCCC(=O)Nc1ccc(NC(=O)c2ccc3c(c2)OCO3)cc1OC, which “activity change, negative = inhibition” value is on record?
**A.** inactive: -3.04%

**Q.** Which Potency does the source give for OCc1ccc(-c2nn(Cc3ccccc3)c3ccccc23)o1 here?
**A.** inconclusive: 15.8 µM [inhibitor, partial curve]

**Q.** With COCCN1C(=O)c2ccccc2C(C(=O)NCCCN2CCCC2=O)C1c1c[nH]c2ccccc12 (configuration not stated) as the compound, how does the Potency read?
**A.** active: 25.1 µM

**Q.** How did the Potency turn out when CCc1ccc2oc(-c3cc(N)ccc3O)nc2c1 was run?
**A.** inconclusive: 31.6 µM [inhibitor, single point]

**Q.** For O=C(NCc1ccccn1)c1ccc2nc(-c3ccco3)c(-c3ccco3)nc2c1, which Potency is on record?
**A.** active: 3.16 µM

**Q.** For O=C(O)[C@@H]1Cc2c([nH]c3ccccc23)[C@@H](CCCCO)N1, which activity change, negative = inhibition is on record?
**A.** inactive: -4.63% [at 11.4 µM]

**Q.** With COC(=O)CCc1c(C)c(C(=O)c2ccco2)c2ccccn12 as the compound, how does the Potency read?
**A.** active: 7.94 µM

**Q.** With CS(=O)(=O)Nc1cccc(-c2nccc(-n3ccnc3)n2)c1 as the compound, how does the Potency read?
**A.** active: 20 µM

**Q.** How did the Potency turn out when CN(C)c1ccc(N/C=C/C(=O)c2ccccc2)cc1 was run?
**A.** inconclusive: 20 µM [inhibitor, partial curve]

**Q.** With O=C(Nc1cccc(OC(F)(F)F)c1)c1ccc(Br)o1 as the compound, how does the Potency read?
**A.** inconclusive: 31.6 µM [inhibitor, single point]

**Q.** For COc1cc(C)c2c(=O)cc(-c3ccccc3)oc2c1, which “activity change, negative = inhibition” value is on record?
**A.** inactive: -4.55%

**Q.** CN1CCN(c2cc(-c3ccccc3Cl)ncn2)CC1 was tested. Which Potency did it give?
**A.** inconclusive: 6.31 µM [inhibitor, single point]

**Q.** Which “activity change, negative = inhibition” value does the source give for O=C(Nc1nc2ccccc2n1Cc1ccc(Cl)cc1)c1ccco1 here?
**A.** inactive: 2.99%

**Q.** With O=C(c1ccccc1)N1CCN(c2ccccc2F)CC1 as the compound, how does the Potency read?
**A.** inconclusive: 39.8 µM [inhibitor, single point]
